Experimental findings from patent publication US20220267463A1, “ANTIBODIES WHICH BIND TO CANCER CELLS AND TARGET RADIONUCLIDES TO SAID CELLS” (Hoffmann-La Roche Inc., priority 2019, published 2022) are described below.

This assay relates to Pb-DOTA labeled with FITC. Briefly: FACS staining using DOTA-FITC on MKN-45 cells. The assay is classed as cell-based. Particulars: 10 μg/mL antibody, FIG. 24. The procedure: These examples investigate recruitment of Pb-DOTA to cells by split antibodies as described herein. P1AF0712 has a first heavy chain of SEQ ID NO:97, a second heavy chain of SEQ ID NO: 98 and a light chain of SEQ ID NO: 103. P1AF0713 has a first heavy chain of SEQ ID NO: 100, a second heavy chain of SEQ ID NO: 101 and a light chain of SEQ ID NO: 103. MKN-45 cells were detached from the culture bottle using Trypsin and were counted using a Casy cell counter. After pelleting at 4° C., 300 g the cells were resuspended in FACS Buffer (2.5% FCS in PBS), adjusted to 2.0E+06 cells/mL dispensed to 96-well PP V-bottom-Platte (25 μL/well=5.0E+04 Zellen/well).
The CEA specific SPLIT antibodies (P1AF0712 or P1AF0713 respectively) were adjusted to 40 μg/mL in FACS buffer, resulting in a final concentration of 10 μg/mL. Both antibodies were added to the cells either combined or separated and followed by buffer and incubated at 4° C. for 1 h. Subsequently, Pb-DOTA labeled with FITC was added to the cells in equimolar ratio to the antibodies and incubated for 1 h at 4° C. The cells were then washed twice in FACS buffer and resuspended in 70 μl/well FACS buffer for measurement using a FACS Canto (BD, Pharmingen). […]
EC50 was determined for the SPLIT antibodies using either secondary antibody based detection (488, top panel) or Pb-DOTA-FITC (DOTA-FITC, bottom panel)

B1: P1AF0712: CEA specific SPLIT antibody, DOTA binder half; SEQ ID NO 97, 98, 103 (protein)
chain 1: QVQLVQSGAEVKKPGASVKVSCKASGYTFTEFGMNWVRQAPGQGLEWMGWINTKTGEATYVEEFKGRVTFTTDTSTSTAYMELRSLRSDDTAVYYCARWDFAYYVEAMDYWGQGTTVTVSSASTKGPSVFPLAPSSKSTSGGTAALGCLVKDYFPEPVTVSWNSGALTSGVHTFPAVLQSSGLYSLSSVVTVPSSSLGTQTYICNVNHKPSNTKVDKKV[… human IgG1 Fc with changes …]
chain 2: QVQLVQSGAEVKKPGASVKVSCKASGYTFTEFGMNWVRQAPGQGLEWMGWINTKTGEATYVEEFKGRVTFTTDTSTSTAYMELRSLRSDDTAVYYCARWDFAYYVEAMDYWGQGTTVTVSSASTKGPSVFPLAPSSKSTSGGTAALGCLVKDYFPEPVTVSWNSGALTSGVHTFPAVLQSSGLYSLSSVVTVPSSSLGTQTYICNVNHKPSNTKVDKKVEPKSCDKTHTCPPCPAPEAAGGPSVFLFPPKPKDTLMISRTPEVTCVVVDVSHEDPEVKFNWYVDGVEVHNAKTKPREEQYNSTYRVVSVLTVLHQDWLNGKEYKCKVSNKALGAPIEKTISKAKGQPREPQVCTLPPSRDELTKNQVSLSCAVKGFYPSDIAVEWESNGQPENNYKTTPPVLDSDGSFFLVSKLTVDKSRWQQGNVFSCSVMHEALHNHYTQKSLSLSPGGGGGSGGGGSGGGGSGGGGSQAVVIQESALTTPPGETVTLTCGSSTGAVTASNYANWVQEKPDHLFTGLIGGHNNRPPGVPARFSGSLIGDKAALTIAGTQTEDEAIYFCALWYSDHWVIGGGTKLTVL
chain 3: DIQMTQSPSSLSASVGDRVTITCKASAAVGTYVAWYQQKPGKAPKLLIYSASYRKRGVPSRFSGSGSGTDFTLTISSLQPEDFATYYCHQYYTYPLFTFGQGTKLEIKRTVAAPSVFIFPPSDEQLKSGTASVVCLLNNFYPREAKVQWKVDNALQSGNSQESVTEQDSKDSTYSLSSTLTLSKADYEKHKVYACEVTHQGLSSPVTKSFNRGEC
modifications: P1AF0712 HCknob <CEA> CH1A1A (D1AC4023); P1AF0712 HChole <CEA> CH1A1A DOTA-VL (D1AE4684); P1AF0712 and P1AF0713 light chain (D1AA3384)
As to B1, the “fluorescence signal / recruitment of Pb-DOTA-FITC to cells” value is reported as “lack of Pb-DOTA binding capability”.

B2: P1AF0713: CEA specific SPLIT antibody, DOTA binder half; SEQ ID NO 100, 101, 103 (protein)
chain 1: QVQLVQSGAEVKKPGASVKVSCKASGYTFTEFGMNWVRQAPGQGLEWMGWINTKTGEATYVEEFKGRVTFTTDTSTSTAYMELRSLRSDDTAVYYCARWDFAYYVEAMDYWGQGTTVTVSSASTKGPSVFPLAPSSKSTSGGTAALGCLVKDYFPEPVTVSWNSGALTSGVHTFPAVLQSSGLYSLSSVVTVPSSSLGTQTYICNVNHKPSNTKVDKKVEPKSCDKTHTCPPCPAPEAAGGPSVFLFPPKPKDTLMISRTPEVTCVVVDVSHEDPEVKFNWYVDGVEVHNAKTKPREEQYNSTYRVVSVLTVLHQDWLNGKEYKCKVSNKALGAPIEKTISKAKGQPREPQVCTLPPSRDELTKNQVSLSCAVKGFYPSDIAVEWESNGQPENNYKTTPPVLDSDGSFFLVSKLTVDKSRWQQGNVFSCSVMHEALHNHYTQKSLSLSPG
chain 2: QVQLVQSGAEVKKPGASVKVSCKASGYTFTEFGMNWVRQAPGQGLEWMGWINTKTGEATYVEEFKGRVTFTTDTSTSTAYMELRSLRSDDTAVYYCARWDFAYYVEAMDYWGQGTTVTVSSASTKGPSVFPLAPSSKSTSGGTAALGCLVKDYFPEPVTVSWNSGALTSGVHTFPAVLQSSGLYSLSSVVTVPSSSLGTQTYICNVNHKPSNTKVDKKV[… human IgG1 Fc with changes …]GGGGSGGGGSGGGGSGGGGSHVKLQESGPGLVQPSQSLSLTCTVSGFSLTDYGVHWVRQSPGKGLEWLGVIWSGGGTAYNTALISRLNIYRDNSKNQVFLEMNSLQAEDTAMYYCARRGSYPYNYFDAWGQGTTVTVSSAST
chain 3: DIQMTQSPSSLSASVGDRVTITCKASAAVGTYVAWYQQKPGKAPKLLIYSASYRKRGVPSRFSGSGSGTDFTLTISSLQPEDFATYYCHQYYTYPLFTFGQGTKLEIKRTVAAPSVFIFPPSDEQLKSGTASVVCLLNNFYPREAKVQWKVDNALQSGNSQESVTEQDSKDSTYSLSSTLTLSKADYEKHKVYACEVTHQGLSSPVTKSFNRGEC
modifications: P1AF0713 HCHole <CEA> CH1A1A (D1AC4022); P1AF0713 HCknob <CEA> CH1A1A DOTA-VH-AST (D1AE3670); P1AF0712 and P1AF0713 light chain (D1AA3384)
B2: the “fluorescence signal / recruitment of Pb-DOTA-FITC to cells” value is on record as “lack of Pb-DOTA binding capability”.
